The full ranking holds about 81,000 sequences; the median of “one-hybrid fitness for binding parS DNA” is about -0.17, and the highest 2% start at about 0.51. This is one part of the list.
B1: Caulobacter ParB omega fusion; a variant is named by its letters at X, in order, B8GW30 (parent)
chain: MESVVVGEPGMSEGRRGLGRGLSALLGEVDAAPAQAPGEQLGGSREAPIEILQRNPDQPRRTFREEDLEDLSNSIREKGVLQPILVRPSPDTAGEYQIVAGERAWRAAQRAGLKTVPIMVRELDDLAVLEIGIIENVQRADLNVLEEALSYKVLMEKFERTQENIAQTIGKSXSHVANXMRLLXLPDEVQSYLVSGELTAXHARAIAAAADPVALAKQIIEGGLSVRETEALARKAPNLSAGKSKGGRPPRVKDTDTQALESDLSSVLGLDVSIDHRGSTGTLTITYATLEQLDDLCNRLTRGI

Variants of: B1
Assay: one-hybrid fitness for binding parS DNA (scaled: cognate 1, non-cognate 0); higher = stronger binding
Settings: with parS DNA site
Procedure, shortened: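 Values were rescaled so that cognate is 1 and non-cognate is 0. Each is a fitness, the log change in a variant's read ratio to wild type from Illumina reads of plasmids before and after selection, with three replicate libraries pooled and variants under 10 reads dropped. Selection of the Caulobacter ParB libraries, four specificity codons randomised, used E. coli USO with a HIS3 reporter, site 19 bp from the promoter, on M9-minus-histidine with 0.1 mM IPTG and 5 mM 3-AT for 48 hours at 37°C.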

one-hybrid fitness for binding parS DNA, 0.227:
RCGW

one-hybrid fitness for binding parS DNA, 0.301:
RFVY

one-hybrid fitness for binding parS DNA, 0.25:
RRMY

one-hybrid fitness for binding parS DNA, 1:
RACS

one-hybrid fitness for binding parS DNA, 0.497:
RMTY

one-hybrid fitness for binding parS DNA, 0.205:
NAKN

one-hybrid fitness for binding parS DNA, ≤ 0.2:
LNNM
IYQS
QQFS
EGHG
KIYN
GNQH
TVKC
FTCG
QLPE
QGFF
TQCR
SYFS
DGSY
PIAG
HPTF
LVHA
LGRA
DGRS
SWPW
DQRT
MSQR
MHSG
HGKR
CNFD
PQQA
KPVQ
HEHN
VRRH
PHIG
LVVH
RTPE
SGIC
DPLT
VAAN
VPHC
AEAG
QKDH
SATF
TTPN
PWGG
CNYC
QWGR
VINS
VADS
EAEP
LRDM
PRKY
QIAM
LSMV
FPYI
TSEN
DVMA
HEPG
SNSS
HSIL
NLIA
VCVG
QSQI
VVLR
TSRE
RWLM
VQPS
ESLF
SMHS
KYIF
IQNW
SFPK
DAGD
PAWQ
EGRA
REQV
CCNT
LKVF
HAIR
RMRD
QAWT
DSRM
VPAW
SNQT
NDPG
HICA
SDHH
GGVT
FIIR
EAPG
HVAA
RKVH
PLQY
VYWM
ADGC
YVGT
KHGV
MQIC
QKLF
HTKT
QTQK
PPDS
EPYD
LLLI
KSSW
AIVW
CRAC
CRGA
IRPN
PDLT
ELVL
FLFR
TVML
GKPI
PWHI
MSMC
AMAC
KQCC
LLES
ATWR
PCKC
PHAV
TLPQ
TMLY
TRHS
LHNR
CKFF
HIRY
RIHH
RHKL
GVPD
GAMN
GSET
YRSL
TSFK
HATG
FMSK
NYES
TGQC
CPAI
FTWF
YRPS
LMPG
SRHK
QGLL
GRQC
SEVC
FRLF
FAGC
EQLI
SVTV
FVLT
HKQS
NIRW
MSEG
AQQY
QTMT
QISI
RPRF
YHCF
CRSE
PVER
TFTT
YFNR
KRRS
NVAD
RMKK
PYNL
TGAY
VNVT
AMAF
QKEC
DPAN
VQNR
QLLV
HGIT
TTDH
ASTM
EPYK
TTRV
LECA
RRMW
KGWY
YTGV
DITR
MSDC
NVHL
SPEK
QFSM
YKMS
VRAK
NFQF
ARHP

one-hybrid fitness for binding parS DNA, 0.563:
RWEG
